The campaign covered roughly 48,000 compounds. About 450 (0.94%) were called active. Not shown: some 19% with an inconclusive outcome. Calls come from the whole dose curve; as a rule, active = well fitted inhibition curve with a large enough effect; inconclusive = small, poorly fitted or top-dose-only effect; inactive = no such curve, though single readings can be large or run the other way. This is one part of the list.
Test: Primary qHTS for Identification of Small Molecule Inhibitors of Huntingtin Promoter Activity; note: nearly all actives have a fitted effect of over 50% in size
Conditions: HEK293 HTT promoter firefly luciferase reporter (activity 0% = vehicle and -100% = no light), 24 h; series mostly up to 57.5 µM; activity change, negative = inhibition: at the top concentration
In short: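 HEK293 luciferase promoter-reporter cells (2,500/well) plated 24 h, then compounds added at up to 57.5 uM final for 24 h at 37 °C. Firefly luminescence by Dual-Glo, normalized to vehicle (0%) and zero RLU (-100%).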

Activity change, negative = inhibition, inactive:
O=C(Cc1ccccc1)Nc1cc(-c2nc3cc(Cl)ccc3o2)ccc1Cl -5.46%
COc1ccc(Cc2nc3ccc(C(=O)NCc4cc(Br)ccc4OC)cc3o2)cc1 -29.7%
COc1ccc(CCC(=O)NCc2nc3cccnc3n2Cc2ccc(OC)cc2)cc1 2.25%
CCOC(=O)c1c(NC(=O)CS(=O)(=O)c2ccc(Cl)cc2)sc2c1CCCC2 -9.36%
CNC(=O)C1CCN(C(=O)N2CC(C)Oc3ccc(C)cc32)CC1 (centres undefined) 4.34%
COc1ccc(-c2cc(C(=O)OCC(=O)c3cccc(OC)c3)c3cccc(Cl)c3n2)cc1 22.3%
CCOC(=O)c1c(NC(=O)c2cc(=O)c3c(C)cc(C)cc3o2)sc2c1CCC2 0%
COc1ccc(NC(=O)C2CCN(c3nc(-c4ccc(OC)c(OC)c4)no3)CC2)cc1Cl -9.17%
COc1ccccc1N(C)C(=O)Cn1c(=O)oc2cc(S(=O)(=O)N3CCCC3)ccc21 -7.75%
O=C(O)CCNC(=O)c1ccc(N=Nc2ccc(O)c(C(=O)O)c2)cc1
Cc1nn(C)c2c1c(C(F)(F)F)cc(=O)n2C(C)C(=O)N1CCN(c2ccccc2)CC1 (centres undefined) -17%
CCOC(=O)c1c(C)[nH]c(C)c1S(=O)(=O)N1CCN(c2ccccc2OC)CC1 -11.4%
COc1ccc(Cl)cc1NC(=O)CSc1nc2ccccc2nc1N1CCCCC1 -16%
CC(C)(OCc1nn(Cc2ccccc2)c2ccccc12)C(=O)O 9.82%
COc1cc(/C=C/c2nc(C#N)c(NC(C)c3ccccc3)o2)cc(OC)c1OC (centres undefined) -29.5%
COc1cc(NCc2ccc3nc(N)nc(N)c3c2C)cc(OC)c1OC
CN(Cc1ccccc1)C(=O)c1cc2c(s1)-c1ccc(Cl)cc1SC2 5.01%
CCOc1ccc(CNC(=O)Cn2c(=O)c3cccn3c3ccc(F)cc32)cc1OC -1.55%
O=C(CCCCn1c(=O)c2ccccc2n(CC(=O)Nc2cccc(F)c2)c1=O)NCc1ccccc1Cl -2.51%
Cc1ccc(CNC(=O)Cn2c(=O)n(-c3ccccc3)c(=O)c3c2c2cc(C)ccc2n3C)cc1 -12.1%
CCCCN(C)CCNC(=O)Cn1ncc2c([nH]c3ccccc32)c1=O -4.88%
Cc1ccc(NC(=O)CCSc2nc(-c3ccc4c(c3)OCO4)cc(C(F)(F)F)n2)cc1 -7.58%
CCOC(=O)CCN(c1ccccc1)S(=O)(=O)c1ccc2[nH]c(=O)ccc2c1 -36.4%
CCc1ccc(Oc2nc3c(C)cccn3c(=O)c2/C=C(\C#N)c2nc3ccccc3s2)cc1 -1.3%
O=C(c1ccc(Cl)cc1)n1nc(-c2ccco2)nc1NCc1cccs1 5.71%
CCCN1CCCC[C@H]1C(=O)Nc1c(C)cccc1C 6.88%
Cc1ccc(-n2ncc3c(N(CCO)Cc4ccccc4)ncnc32)cc1 8.62%
COc1ccc(CCCc2nnc(SCC(=O)Nc3ccccc3F)o2)cc1C -12.2% [at 11.5 µM]
COc1cc(C(=O)NCc2ccc(OCCN(C)C)cc2)cc(OC)c1OC 6.93%
COc1cccc(N(Cc2nnc3n2CCCCC3)C(=O)Nc2cccc(Cl)c2)c1 -13.8%
CCOCCCNC(=O)CN1C(=O)c2c(c3ccccc3n2C)C1c1ccc(OC)cc1 (centres undefined) -8.22%
O=C(Cc1csc2nc(-c3ccccc3)cn12)NCc1ccc(F)cc1 -26.4%
CCOc1ccccc1NC(=O)N1CCCn2nc(C)cc21 -7.94%
Cc1ccc(NC(=O)CCc2c(C)nn(-c3ccc(N4CCOCC4)nn3)c2C)cc1F 9.82%
CCOC(=O)c1c(S(=O)(=O)N2CCCC(C(=O)Nc3ncccc3C)C2)c(C)n(C)c1C (centres undefined) -2.59%
O=C(OCc1ccccc1Cl)c1ccc(-c2nnn(Cc3ccccc3Cl)n2)cc1 5.1%
COc1ccc(Cn2ccc3nc(C)c(C(=O)Nc4ccc(OC)cc4OC)cc3c2=O)cc1 2.4%
Cc1ccc(NC(=O)Cn2c(=O)n(CCc3ccccc3)c(=O)c3c4c(sc32)CCCC4)cc1C -0.892%
Cc1cc(C)c(S(=O)(=O)Nc2cccc(-c3cn4ccccc4n3)c2)c(C)c1 -5.72%
COC(=O)c1c(SCC(=O)Nc2ccccc2OC)[nH]c2ccccc2c1=O -11.8%
Cc1ccc(N2CC(NC(=O)/C=C\c3ccc4c(c3)OCO4)CC2=O)cc1 (centres undefined) -37.7%
O=C(C1CC1)N1CCc2cc(Br)cc(S(=O)(=O)N3CCN(c4ccccc4F)CC3)c21 -2.88%
O=C(/C=C/c1ccco1)Nc1ccc(Cl)c(-c2nc3cc(Cl)ccc3o2)c1 -27.1%
Cc1ccc(NC(=O)C2CCN(c3nn4c(=O)cc(C)nc4s3)CC2)cc1 -13.1%
Cc1c(Cl)cccc1NC(=O)CSc1cc(-c2ccccc2)ncn1 -3.17%
CC(C)n1c(=O)c2oc3ccccc3c2n(Cc2ccccc2F)c1=O -19.7%
CCOC(=O)c1cccc(NC(=O)CCNS(=O)(=O)c2cccc3nonc23)c1 -14.4%
O=c1cc(CO)occ1O 2.53%
CC1=C(c2ccc(Cl)cc2)S(=O)(=O)NC1=NCc1ccc(C)cc1 -11.9%
CC12CN3CC(C)(CN(C1)C3c1ccc(OCc3ccccc3)cc1)C2=O (centres undefined) -10.8%
CCOC(=O)c1ccc(NC(=O)c2cc3c(n(-c4ccc(C)cc4)c2=O)CC(C)(C)CC3=O)cc1 -11.6%
Cn1c(C(=O)N2CCC(C(=O)NCCc3ccc(S(N)(=O)=O)cc3)CC2)cc2sccc21 -6.05%
COc1ccc(-c2nc3scc(CCNS(=O)(=O)c4cccc(C(C)=O)c4)n3n2)cc1 -15.1%
Cc1ccc(NC(=O)CSc2nnc(C)c(=O)[nH]2)cc1 -3.36%
CCc1ccc(NC(=O)Cn2c(=O)ccc3cc(S(=O)(=O)N4CCCC4)ccc32)cc1 -10.8%
CCOC(=O)c1cccc(Nc2cc(C)nc(C)n2)c1 -5.44%
Cc1nnc2c3ccccc3nc(N3CCN(c4cccc(Cl)c4)CC3)n12 -3.03%
CCOCCCn1c(=N)c(C(=O)NC2CCCC2)cc2c(=O)n3cccc(C)c3nc21 -4.89%
Cc1noc(Cn2c(=O)c3ccccc3n(CC(=O)Nc3ccccc3C(F)(F)F)c2=O)n1 -8.16%
Oc1ccc(Nc2nc(-c3ccc(Cl)cc3)nc3ccccc23)cc1 -29.2%
COc1ccccc1CNC(=O)CN1C(=O)CCCc2ccccc21 18.1%
CCc1ccc(NC(=O)c2oc3c(c2C)-c2[nH]ncc2CC3)cc1 79.7%
CCCCOc1ccc(C2c3c(oc4ccccc4c3=O)C(=O)N2c2nc(C)c(C(=O)OCC)s2)cc1OC (centres undefined) -11.1%
COc1ccc(S(=O)(=O)NCCc2cn3ccsc3n2)cc1 -3.61%
CC(=O)c1ccc(NC(=O)c2ccc(CN3C(=O)CCn4nc(C)cc43)cc2)cc1 18.5%
O=C(CCC1N=C2c3ccccc3N=C(SCc3cccc(F)c3)N2C1=O)NCc1ccc(F)cc1 (centres undefined) -22.5%
CCc1ccc(NC(=O)Cn2nnc(C(=O)Nc3cc(C)ccc3OC)c2N)cc1 -25.9%
O=C(Nc1ccccc1Br)N1CCN2CCCCC2C1 (centres undefined) 12.2%
NC1CCN(c2cccc(Cl)n2)CC1 13%
Cc1nn2c(=O)cc(COC(=O)c3ccc(F)cc3)nc2s1 8.83%
CCc1ccc(NC(=O)CN2C(=O)CCSc3ccc(S(=O)(=O)N4CCCC4)cc32)cc1 -29.8%
COc1ccc(C(=O)c2cn(Cc3cccc(C)c3)c3cc4c(cc3c2=O)OCCO4)cc1OC -26.2%
CCN(CC)CCNC(=O)Cn1ncc2c3ccccc3n(Cc3ccccc3C)c2c1=O -4.86%
COC(=O)c1ccccc1NC(=O)c1cc(=O)c2ccc(C)c(C)c2o1 -7.53% [at 11.5 µM]
CCOC(=O)C1CCN(c2nc3c(S(=O)(=O)c4ccc(CC)cc4)nnn3c3ccc(Cl)cc23)CC1 -12.9%
CC(=O)c1ccc(NC(=O)C2CCCN(S(=O)(=O)c3ccc(Br)s3)C2)cc1 (centres undefined) 17.1%
CCOc1ccc(NC(=O)c2sc3nc4n(c(=O)c3c2C)CCCC4)cc1 3.46%
Cc1cc(Cl)ccc1NC(=O)CS(=O)(=O)c1cccc2nsnc12 -13.3%
Cc1ccc(C(=O)NCCSc2c[nH]c3ccccc23)cc1C -0.196%
Cc1ccn2c(Nc3ccc4c(c3)OCO4)c(-c3ccc(C)o3)nc2c1 16.8%
CCOc1ccc(N(CC)C(=O)c2cc3c(s2)-c2ccc(Cl)cc2SC3)cc1 -10.3%
Cc1cc(C)cc(NC(=O)CSc2oc(-c3cccs3)nc2S(=O)(=O)c2ccc(Br)cc2)c1 -5.46%
COC(=O)c1sc2cccc(F)c2c1S(=O)(=O)NC(C)c1ccccc1 (centres undefined) -2.02%
CC(=O)NC(=O)c1ccccc1O -3.15%
COc1ccc(NC(=O)C2(S(=O)(=O)c3ccc(C)cc3)CC2)c(OC)c1 12%
COc1ccc(-c2c(C)c3ccc(O)c(CN4CCCCC4C)c3oc2=O)cc1OC (centres undefined) -16.1%
CCOC(=O)C1CCN(C(=O)c2ccc3c(=O)n4nc(Nc5ccccc5)sc4nc3c2)CC1 -34.1%
CCOc1ccc(NC(c2ccc(Cl)cc2)c2nnc(-c3cccc(F)c3)o2)cc1 (centres undefined) -14.7%
O=C(Nc1ccccc1F)C(c1ccccc1)N1Cc2ccccc2C1=O (centres undefined) -9.42%
O=C(CSc1nccn1Cc1ccc(F)cc1)NC1CCCC1 -23.8%
CCCOC(=O)c1ccc(NC(=O)C2CC(=O)N(c3ccc(C)cc3)C2)cc1 (centres undefined) -1.98%
CCCOc1ccccc1C(=O)N1CCCCC1CCN1CCCCC1 (centres undefined) -4.15%
CCC(=O)N1c2ccccc2CC1C(=O)NCCc1ccccc1OC (centres undefined) -18.7%
CN1CC(=O)N2[C@H](c3ccc4c(c3)OCO4)c3[nH]c4ccccc4c3C[C@@H]2C1=O -8.63%
CCc1ccc(-n2nc(C)c3c(C(=O)Nc4ccc(Cl)cc4)cc(C)nc32)cc1 -11.7%
CCCCNC(=O)CSc1nc(-c2ccc(OC)cc2)cc(C(F)(F)F)n1 -14.3%
Cc1ccc(C)c(-c2ccc(=O)n(C(C)C(=O)Nc3ccccc3C(F)(F)F)n2)c1 (centres undefined) -26.8%
COc1ccc(OC)c(-n2nnc(-c3nc(-c4ccc5c(c4)OCO5)no3)c2C)c1 13.5%
O=C(NC1CC(=O)N(c2cccc(F)c2)C1)c1ccc(S(=O)(=O)N2CCCCC2)cc1 (centres undefined) -8.55%

Reference: PubChem BioAssay AID1508623 (National Center for Advancing Translational Sciences (NCATS), 2021)
